The results in this text go back to publication PMC7718926.

B1: actin-depolymerization factor 4 (ADF4), wild type (protein, UniProt Q9ZSK3 1-139)
chain: MANAASGMAVHDDCKLRFLELKAKRTHRFIVYKIEEKQKQVIVEKVGEPILTYEDFAASLPADECRYAIYDFDFVTAENCQKSKIFFIAWCPDVAKVRSKMIYASSKDRFKRELDGIQVELQATDPTEMDLDVLKSRVN
B2: ADF4 S105A (phospho-null derivative) (protein, UniProt Q9ZSK3 1-139)
chain: MANAASGMAVHDDCKLRFLELKAKRTHRFIVYKIEEKQKQVIVEKVGEPILTYEDFAASLPADECRYAIYDFDFVTAENCQKSKIFFIAWCPDVAKVRSKMIYAASKDRFKRELDGIQVELQATDPTEMDLDVLKSRVN
B3: ADF4 S106D (phosphomimic variant) (protein, UniProt Q9ZSK3 1-139)
chain: MANAASGMAVHDDCKLRFLELKAKRTHRFIVYKIEEKQKQVIVEKVGEPILTYEDFAASLPADECRYAIYDFDFVTAENCQKSKIFFIAWCPDVAKVRSKMIYASDKDRFKRELDGIQVELQATDPTEMDLDVLKSRVN
B4: ADF4 S106A (phospho-null derivative) (protein, UniProt Q9ZSK3 1-139)
chain: MANAASGMAVHDDCKLRFLELKAKRTHRFIVYKIEEKQKQVIVEKVGEPILTYEDFAASLPADECRYAIYDFDFVTAENCQKSKIFFIAWCPDVAKVRSKMIYASAKDRFKRELDGIQVELQATDPTEMDLDVLKSRVN
B5: ADF4 S105D (phosphomimic variant) (protein, UniProt Q9ZSK3 1-139)
chain: MANAASGMAVHDDCKLRFLELKAKRTHRFIVYKIEEKQKQVIVEKVGEPILTYEDFAASLPADECRYAIYDFDFVTAENCQKSKIFFIAWCPDVAKVRSKMIYADSKDRFKRELDGIQVELQATDPTEMDLDVLKSRVN

These are yes or no findings as the source states them, for the method shown. In cells and extracts the contact can be indirect. Some entries that bind do so weakly or less than the wild type.

The target in this experiment is Arabidopsis actin-7 (ACT7) (Arabidopsis) (UniProt P53492). Kind of experiment: co-IP; transient co-expression in N. benthamiana; extract in 50 mM HEPES pH 7.5, 50 mM NaCl, 10 mM EDTA, 0.2% triton X-100; anti-Flag M2 or anti-actin monoclonal antibody with protein-G sepharose, 4 °C; blot with anti-Flag M2-peroxidase.
As to B1, the binding result is “binds”.
To B2 belongs “binds”.
Take B3: the binding entry was “no binding”.
In the case of B4 it was “binds”.
In the case of B5 it was “no binding”.
